Results reported in publication PMC6212790.
Some of the results follow. At the low end of the ranking, values are background and their order means little.

These sequences were tested against T1, GST-Rok (full length) (UniProt O34857) (assay: protein binding microarray). Conditions: Rok is a gene silencer of Bacillus subtilis; high values mean tight binding; most listed sequences are background and not binding sites; double strand, one strand shown.
T1 sequence: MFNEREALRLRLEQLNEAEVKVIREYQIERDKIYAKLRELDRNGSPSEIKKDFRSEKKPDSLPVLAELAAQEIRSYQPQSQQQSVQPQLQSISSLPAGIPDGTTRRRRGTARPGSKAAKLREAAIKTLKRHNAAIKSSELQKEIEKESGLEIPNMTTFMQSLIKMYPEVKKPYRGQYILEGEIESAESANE
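Also: rank score from −0.5 (least bound) to 0.5 (best bound).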

Sequence	binding signal [E-score]
ATAGGTAA	0.223
CACCGCCG	-0.143
CTAGGAGC	0.135
GTTAGGGA	-0.122
ATTGCGCA	-0.0992
AAGTAGTA	0.332
ACCGCGGG	-0.291
CATGACAG	-0.0742
CAGGACTA	-0.0553
CCATGACG	-0.162
CGAGGGAC	-0.174
TCCCAGCA	-0.184
CGTCTATC	-0.119
ATTTGTCG	0.155
CGAGCTGA	-0.121
AAGGACGG	-0.151
AGTGGACG	-0.211
CCGTATGA	0.00293
TCTATTCA	0.0926
CTTTCTAC	0.444
AGCTGGAC	-0.285
ACATCTGC	0.16

Sequence	binding signal [E-score]
CCAAGGTA	0.0533
ATGGGAGC	-0.257
GACAGATA	0.176
CAAAATGA	0.153
AGCTGCTG	-0.167
ACTGCCGA	-0.198
AATATCAA	0.29
CCAGTAGG	0.103
CCACTCGA	-0.0428
AGCCTCTA	0.0465
CTAGGGGC	-0.229
CCCATCCC	-0.266
CACGCATG	-0.148
AAAGAAAC	-0.0495
GTCCCTGA	-0.197
CCTACAGA	-0.0148
TCGCACCA	-0.107
TAGTCATA	0.154
CTCCTCGA	-0.0863
CACAGCGA	-0.108
ATCGGCAA	-0.159
CCGCCCCC	-0.354

Sequence	binding signal [E-score]
CACCTCGC	-0.177
CAACTGCG	-0.142
CGGTTTCA	-0.0506
CCTGGTCA	-0.133
GGATGGCC	-0.338
ACGTGCCA	0.0751
ATGACGGA	0.185
TCGTTAGA	-0.0607
ACGCAGAA	-0.0649
TTATGGAA	0.135
CCCTTGAC	-0.291
AGTCGTGC	0.0818
GAGACACA	-0.151
TGGATCAA	-0.0175
TACCGGAA	0.0111
CTAGCTGA	0.0781
CGCAGCTC	-0.257
AGCGTCAA	-0.0513
CGGGGTGA	-0.131
GCTCTTAC	-0.0751
CTGGCGCA	-0.124
GATATGCA	0.185

Sequence	binding signal [E-score]
AAGTAATC	0.0927
TATCATGA	0.173
GCGGCGTA	-0.0082
CTCGGTGA	0.0549
AGCCAAAT	0.0925
ACTATTCA	0.196
AAATACGT	0.326
GGAAGTAC	-0.1
TAATATAA	0.236
AAATAGGG	-0.165
ATCTCGCC	0.0829
AGGTCTTA	-0.26
AAATATTC	0.251
ACGTCCGG	-0.0632
CCGGTATC	0.0923
AAACCGCA	-0.232
GGGCAAAA	-0.00831
CCGCTTGA	-0.0486
ATCCAATG	0.11
CGTCGCAA	-0.166
